# From PubChem BioAssay AID504339 (National Center for Advancing Translational Sciences (NCATS), 2011)
# The whole screen tested about 390,000 compounds, of which about 17,000 (4.4%) were called active. The shares of active, inactive and inconclusive entries below differ from those in the screen. Calls follow the shape of the dose curve; as a rule, active = well fitted inhibition curve with a large enough effect; inconclusive = small, poorly fitted or top-dose-only effect; inactive = no such curve, though single readings can be large or run the other way. Potencies beside an inconclusive call are fits to weak or partial responses and may not hold up.
# Biological target: Lysine-specific demethylase 4A (Homo sapiens) (UniProt O75164)
# UniProt O75164, sequence (O75164 whole entry, looked up, the tested form may be a part): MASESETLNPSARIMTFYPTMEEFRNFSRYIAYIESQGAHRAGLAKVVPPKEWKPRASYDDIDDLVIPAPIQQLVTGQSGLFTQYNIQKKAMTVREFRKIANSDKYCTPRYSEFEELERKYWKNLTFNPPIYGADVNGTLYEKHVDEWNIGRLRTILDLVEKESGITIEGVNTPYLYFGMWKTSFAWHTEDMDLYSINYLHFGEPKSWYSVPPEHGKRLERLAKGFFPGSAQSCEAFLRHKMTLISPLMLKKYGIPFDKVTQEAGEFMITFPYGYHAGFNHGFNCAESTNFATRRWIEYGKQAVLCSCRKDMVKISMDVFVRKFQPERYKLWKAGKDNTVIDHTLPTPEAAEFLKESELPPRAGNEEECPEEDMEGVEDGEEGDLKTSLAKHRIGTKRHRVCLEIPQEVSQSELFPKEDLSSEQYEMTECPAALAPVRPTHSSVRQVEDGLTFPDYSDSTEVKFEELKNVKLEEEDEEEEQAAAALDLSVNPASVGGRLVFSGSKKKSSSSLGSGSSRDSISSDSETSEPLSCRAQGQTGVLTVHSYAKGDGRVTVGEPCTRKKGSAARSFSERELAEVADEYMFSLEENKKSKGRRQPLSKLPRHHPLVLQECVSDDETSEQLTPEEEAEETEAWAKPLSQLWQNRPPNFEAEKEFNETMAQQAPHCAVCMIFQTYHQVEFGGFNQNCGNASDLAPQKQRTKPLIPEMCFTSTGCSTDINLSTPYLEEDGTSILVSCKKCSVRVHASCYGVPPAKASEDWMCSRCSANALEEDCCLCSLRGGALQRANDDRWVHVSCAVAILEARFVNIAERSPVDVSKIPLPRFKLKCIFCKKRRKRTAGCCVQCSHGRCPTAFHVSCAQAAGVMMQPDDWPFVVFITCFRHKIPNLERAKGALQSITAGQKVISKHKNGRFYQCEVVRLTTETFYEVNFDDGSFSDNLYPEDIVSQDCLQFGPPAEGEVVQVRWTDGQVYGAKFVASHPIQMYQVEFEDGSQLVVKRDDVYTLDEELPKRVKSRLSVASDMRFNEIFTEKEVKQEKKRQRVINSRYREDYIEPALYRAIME
# Experiment: qHTS Assay for Inhibitors of JMJD2A-Tudor Domain; also: nearly all actives have a fitted effect of over 50% in size
# Conditions: AlphaScreen JMJD2A-Tudor / H3K4me3 peptide binding; activity change, negative = inhibition: at 114 µM (top of the series)
# % is scaled to controls: 0 for no effect and ±100 for the full control effect; potency is read from the fitted curve at half-maximal effect; tags tell the direction and shape of the fitted curve.
Structure (SMILES),Potency,"activity change, negative = inhibition"
CCOc1ccccc1CN(CCc1ccc2c(c1)OCO2)Cc1ccccn1,active: 3.16 µM,
O=C(C[n+]1ccccc1)N/N=C/c1cc(Br)ccc1O,active: 22.4 µM,
CC1(c2ccc3c(c2)OCCO3)NC(=O)N(CC(=O)Nc2ccccc2SCC#N)C1=O (configuration not stated),,inactive: -9.06%
Cc1cc(Br)ccc1OCCCCN1CCC(C)CC1,active: 2.51 µM,
CCC(c1nnnn1CCOC)N1CCN(c2cccc(C(F)(F)F)c2)CC1 (configuration not stated),"inconclusive: 79.4 µM [inhibitor, single point]",
Cc1ccc(C(=O)NC(CCc2ccccc2)C(=O)O)cc1 (configuration not stated),"inconclusive: 89.1 µM [inhibitor, single point]",
Cc1ccc(-n2c(C)cc(C(=O)CSc3nncs3)c2C)cc1,"inconclusive: 56.2 µM [inhibitor, partial curve]",
COc1ccccc1/C=N/NC(=O)CN(C1=NS(=O)(=O)c2ccccc21)c1ccccc1,"inconclusive: 17.8 µM [inhibitor, partial curve]",
CCNC(=S)NS(=O)(=O)c1ccc(CC)cc1,active: 25.1 µM,
O=C(Nc1ccc2c(c1)OCCO2)C(=O)NC1CC1,,inactive: -3.57%
Cc1cc(/C=C2\SC(=S)N(C)C2=O)c(C)n1-c1ccccc1O,"inconclusive: 89.1 µM [inhibitor, partial curve]",
Cc1cc(C)n(-c2nc3ccccc3nc2Nc2ccc(Cl)cc2Cl)n1,,inactive: -4.9%
Cc1ccc(S(=O)(=O)N2CCC(C(=O)NCCCn3ccnc3)CC2)cc1,,inactive: -2.74%
CC1CCN(c2ccc(NC(=S)NC(=O)c3ccc(-c4cccc([N+](=O)[O-])c4)o3)cc2)CC1,"inconclusive: 7.08 µM [inhibitor, partial curve]",
COc1ccc(NC(=S)N(CCN(C)C)C(C)c2ccco2)cc1Cl (configuration not stated),"inconclusive: 50.1 µM [inhibitor, partial curve]",
COC(=O)c1ccccc1NC(=O)C(C)Oc1ccccc1 (configuration not stated),"inconclusive: 3.98 µM [inhibitor, single point]",
O=[N+]([O-])c1ccc(N/N=C/c2ccc[nH]2)cc1,active: 56.2 µM,
CCCCC(CC(O)COCCC)c1n[nH]c(=S)n1-c1ccccc1 (configuration not stated),active: 15.8 µM,
CC(C)n1c(-c2ccc(N(C)C)cc2)nc2ccccc21,active: 56.2 µM,
O=C1CCCCN1CC(=O)N1CCCC(Nc2ccc(F)c(F)c2)C1 (configuration not stated),"inconclusive: 15.8 µM [inhibitor, partial curve, poor fit]",
CC(C)CCn1c(SCc2ccc(Cl)cc2)nc2c1c(=O)[nH]c(=O)n2C,,inactive: -20.8%
COC(=O)C1=C(C)NC(C)=C(C(=O)OCC(C)C)C1c1ccccc1[N+](=O)[O-] (configuration not stated),active: 20 µM,
Cc1ccc(C)c(NC(=O)N2CCC(CN3CCOCC3)CC2)c1,,inactive: -21.8%
Cc1ccc(Nc2c(-c3ccc(Cl)cc3)nc3sccn23)c(C)c1,"inconclusive: 39.8 µM [inhibitor, partial curve]",

Structure (SMILES),Potency,"activity change, negative = inhibition"
COc1cccc(N2CCN(C(=O)CCCn3c(=O)[nH]c4ccc(Br)cc4c3=O)CC2)c1,"inconclusive: 39.8 µM [inhibitor, full curve, poor fit]",
CCOC(=O)N1CCN(C(=O)CSCC(=O)Nc2nc(-c3ccc4c(c3)OCO4)cs2)CC1,"inconclusive: 56.2 µM [inhibitor, partial curve]",
CC(C)Oc1cccc(C(=O)Nc2ccc3oc(-c4cccc(Cl)c4)nc3c2)c1,,inactive: -8.17%
CCN(CC)CCN(C(=O)C1=COCCO1)c1nc2ccc(C)cc2s1,,inactive: -10.3%
Cc1cnc(C(=O)OCC(=O)Nc2c(Cl)cc(Cl)cc2Cl)cn1,,inactive: -16.7%
CC(NC(=O)COC(=O)c1ccc(CO)cc1)C1CC2CCC1C2 (configuration not stated),,inactive: -1.69%
Cc1ccc(C)c(N2CCN(C(=O)CCCN3C(=S)NC(C)(C)CC3C)CC2)c1 (configuration not stated),"inconclusive: 56.2 µM [inhibitor, partial curve]",
Cc1ccc2nc(-c3ccncc3)cc(C(=O)Nc3ccc(OC(F)F)cc3)c2c1,"inconclusive: 50.1 µM [inhibitor, partial curve]",
CC[C@]12c3[nH]c4cc(-c5ccco5)ccc4c3CCN1C(=O)[C@@H](CC(=O)NCCCn1ccnc1)C[C@@H]2C(=O)N1CCN(C(=O)c2ccco2)CC1,"inconclusive: 50.1 µM [inhibitor, partial curve]",
CCOC(=O)C1=c2s/c(=C\c3ccncc3)c(=O)n2C(N)=C(C(=O)OC)C1c1ccncc1 (configuration not stated),,inactive: -24.8%
CC(C)N(C(=O)[C@H]1C[C@H](CC(=O)NCc2ccco2)C(=O)N2CCc3c([nH]c4cc(-c5ccco5)ccc34)[C@]12C)C(C)C,active: 56.2 µM,
O=C1C(Br)=C(c2ccccc2)C(c2ccccc2)=C1c1ccccc1,"inconclusive: 7.94 µM [inhibitor, full curve]",
COc1cccc2cc(C(=O)C3=C(O)C(=O)N(c4cc(C)on4)C3c3cccs3)oc12 (configuration not stated),"inconclusive: 31.6 µM [inhibitor, partial curve]",
COc1ccc(C2C(C(C)=O)=C(O)C(=O)N2CCc2ccccc2)c(OC)c1 (configuration not stated),active: 31.6 µM,
Cc1cccc(CS(=O)(=O)Cc2ccc(C(=O)NC3CCCC3)o2)c1,"inconclusive: 25.1 µM [inhibitor, full curve, poor fit]",
Cc1ccc(C(=O)c2ccc([N+](=O)[O-])cc2)cc1,,inactive: -34.6%
COc1ccc(OC)c(CNS(=O)(=O)c2ccc3[nH]c4c(c3c2)CCCCC4)c1,active: 35.5 µM,
CON(C)S(=O)(=O)c1ccc2c(c1)NC(=O)C1CCCN21 (configuration not stated),"inconclusive: 89.1 µM [inhibitor, partial curve]",
CC(C)OCCCNS(=O)(=O)c1ccc2ccccc2c1,,inactive: -16.4%
Cc1ccc(C2=NOC(=O)/C2=C\c2ccc(C)o2)cc1,active: 35.5 µM,
COc1ccc(/C=N/OCC(=O)Nc2nc3ccccc3s2)cc1OC,active: 50.1 µM,
Cc1ccc(NC(=O)CSc2nccn2Cc2ccco2)cc1Cl,"inconclusive: 35.5 µM [inhibitor, partial curve]",
CCOC(=O)c1sc(=S)n(Cc2ccccc2)c1N,"inconclusive: 56.2 µM [inhibitor, partial curve]",
